Some of the results follow. Further columns of the screen follow, without active or inactive calls. The list favours compounds with an active or inconclusive main result. Words in brackets tell the shape of the fitted curve; partial curves, single points and poor fits give uncertain potencies.
Each molecule was assayed against Caspase-7 (Homo sapiens) (UniProt P55210) (assay: Confirmation Concentration-Response Assay for Allosteric/Competitive Inhibitors of Caspase-7). Details: recombinant caspase-7, fluorogenic substrate cleavage; measured here: rate read AC50.
UniProt P55210, sequence (P55210 whole entry, looked up): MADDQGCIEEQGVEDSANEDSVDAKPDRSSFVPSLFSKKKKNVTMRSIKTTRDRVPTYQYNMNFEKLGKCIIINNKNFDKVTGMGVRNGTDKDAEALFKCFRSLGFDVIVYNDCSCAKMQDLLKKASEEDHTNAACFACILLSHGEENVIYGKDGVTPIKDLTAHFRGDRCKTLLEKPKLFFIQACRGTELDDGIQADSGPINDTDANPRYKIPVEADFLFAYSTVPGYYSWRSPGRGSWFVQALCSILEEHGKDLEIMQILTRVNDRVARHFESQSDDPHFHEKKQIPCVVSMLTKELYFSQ
From the text: NIH Molecular Libraries Screening Centers Network [MLSCN]
NIH Chemical Genomics Center [NCGC]
PI Name: Dr. James Wells,
Dr. Enrique Perez-Paya, Dr.Janice Williams, Dr. Dennis Wolan, a person
The caspases (Cysteine Aspartyl Protease) comprise a related family of 14 dimeric proteases that are critical mediators of apoptosis (programmed cell death) and inflammation. The caspases represent an important class of drug targets for stroke, ischemia, cancer and inflammatory diseases. […] One goal of this project was to identify compounds that act as allosteric inhibitors via stabilizing the procaspase form of the enzyme. Previous work in Well's laboratory has shown that such allosteric inhibitors can be identified and these act by binding at the dimer interface of enzyme (Hardy, Lam et al., 2004).
The biochemical assay was configured using purified caspase 7 at a high enzyme concentration to promote formation of the homodimers and thus facilitate the identification of allosteric inhibitors. The overall goal was to identify reversible inhibitors with better drug-like properties than the currently available set of aspartyl-containing peptidomimetics that covalently bind the active site. Caspase 7 was assayed using the profluorescent substrate Ac-DEVD-AFC. After initiation of the assay with substrate the plates were rapidly read using an automated robotic system (Kalypsys, Inc.) to maintain consistent timing. A kinetic mode of detection was used where the initial rate was collected (estimated final product formation was ~10%). Compounds were screened as a concentration-titration series that ranged from 57 uM to 0.7 nM. Below is the protocol used for caspase 7.
NCGC Assay Protocol Summary:
Caspase 7 was prepared in buffer (50 mM HEPES pH 7.5, 50 mM KCl, 200 mM NaCl, 10 mM DTT, 0.1% CHAPS) at a concentration of 66.6 nM and 3 uL was dispensed to all wells using black solid Kalypsys 1536-well plates. 20 nL of DMSO containing compounds was added using a pin-tool (Kalypsys Inc.) to columns 5-48. Then 20 nL of DMSO solution from a control plate was added to columns 1-4. […] The plates were then exposed using 405 nm excitation/520 nm emission filters for 4 sec and read at 20 sec intervals for 3 min. […]
Concentration-response curves were fitted to the data calculated from slope of the linear regression of fluorescent intensity versus time (the rate). The concentration-effect curves were then classified based on curve quality (r2), response magnitude and degree of measured activity. […] Inconclusive compounds had appreciable concentration-dependent effects on both the measured rate and the interpolated basal fluorescence intensity at the start of the reaction but where the basal fluorescent intensity was marginal (e.g. < 10-fold). […]
For `C[C@]12Cc3cn4c(nc3C=C1CC[C@H]1[C@@H]2CC[C@@]2(C)[C@H]1CC[C@@]2(O)C#N)nc1ccccc14`, the AC50 was 7.94 µM [falling, full curve].
For `CCn1nc(-c2cccs2)nc2c(=O)n(C)c(=O)nc1-2`, the AC50 was 0.631 µM [falling, full curve].
In the case of `Cn1ncnc2c(=O)n(C)c(=O)nc1-2`, the AC50 is reported as 3.98 µM [falling, full curve].
With `CCn1nc(-c2ccccc2)nc2c(=O)n(C)c(=O)nc1-2` the AC50 was 1.58 µM [falling, full curve].

Reference: PubChem BioAssay AID897 (National Center for Advancing Translational Sciences (NCATS), 2007)
